We go through 1 molecule from patent publication US20250135021A1, “USE OF ANTIBODY-DRUG CONJUGATE, AND COMBINED DRUG AND USE THEREOF” (SHANGHAI MIRACOGEN INC., priority 2021, published 2025).

Assay [1] relates to human lung cancer PDX model LUN #2210-106. Put plainly: Efficacy of MYK-3, AK103 and their combination in human lung cancer PDX model LUN #2210-106 in Hu-HSC-NPG mice. Format: in vivo. As for the experimental part: LUN #2210-106 is an AZD9291-resistant human adenosquamous carcinoma of the lung PDX model. This experiment was performed in total of 4 groups, including a Vehicle group (ADC-3 vehicle), an ADC-3 administration group (1 mg/kg), an AK103 administration group (5 mg/kg), and an ADC-3 (1 mg/kg)+AK103 (5 mg/kg) administration group. During the entire experiment, ADC-3 was administered three times in total for the ADC-3 single-drug administration group, via tail vein injection on Day 0, Day 4, and Day 8; and AK103 was administered every three days via tail vein injection for the AK103 single-drug administration group, 8 times in total. For the ADC-3+AK103 administration group, ADC-3 was administered three times, and AK103 was administered ten times in total, and their administration modes were the same as those for the single-drug administration groups. The experiment period was 34 days. […] During the period from Day 20 to Day 34, the mean tumor volume of animals in the ADC-3 (1 mg/kg) administration group gradually resumed growth (from 184 mm^3 to 893 mm^3); the mean tumor volume of animals in the ADC-3 (1 mg/kg)+AK103 (5 mg/kg) administration group grew slowly (from 38 mm^3 to 126 mm^3), and on Day 34, complete tumor regression was still observed in 1 out of 6 animals.

Assay [2] relates to human lung cancer cell line NCI-H1975. In words: In vitro killing activity, cell proliferation inhibition method using CCK-8. Format: cell-based. The note with it: NCI-H1975, L858R/T790M; mean of two 96-well plates; ND = highest proliferation inhibition % less than 50%.
Assay [3] relates to human lung cancer cell line NCI-H1650. The description is as above. Format: cell-based. The note with it: NCI-H1650, DelE746-A750; mean of two 96-well plates; ND = highest proliferation inhibition % less than 50%.

B1: MYK-3: ADC of anti-EGFR monoclonal antibody BA03 and MMAE via MC-vc-PAB (vc) linker; average DAR 4.1 (conjugate)
heavy: QVQLQESGPGLVKPSETLSLTCTVSGFSLSNYDVHWVRQAPGKGLEWLGVIWSGGNTDYNTPFTSRLTISVDTSKNQFSLKLSSVTAADTAVYYCARALDYYDYEFAYWGQGTLVTVSSASTKGPSVFPLAPSSKSTSGGTAALGCLVKDYFPEPVTVSWNSGALTSGVHTFPAVLQSSGLYSLSSVVTVPSSSLGTQTYICNVNHKPSNTKVDKRV[skipping human IgG1 Fc]
light: EIVLTQSPDFQSVTPKEKVTITCRASQSIGTNIHWYQQKPDQSPKLLIKYASESISGIPSRFSGSGSGTDFTLTINSLEAEDAATYYCQQNNEWPTSFGQGTKLEIKRTVAAPSVFIFPPSDEQLKSGTASVVCLLNNFYPREAKVQWKVDNALQSGNSQESVTEQDSKDSTYSLSSTLTLSKADYEKHKVYACEVTHQGLSSPVTKSFNRGEC
Turning to B1, the “Tumor growth inhibition rate TGI %” value in assay [1] (1 mg/kg i.v. q4d × 3, Day 20) is 86.69%. In assay [1] (1 mg/kg, Day 20), the Tumor inhibition activity entry is “+++ (T/C (%) >10% and ≤20%)”. Besides, the mean tumor volume was found to be 184 mm^3 in assay [1] (1 mg/kg, Day 20) and 893 mm^3 in assay [1] (1 mg/kg, Day 34). For the same molecule, the “IC50 (Mean ± SD, ng/mL)” value in assay [2] came out at 3.0 ± 0.7 ng/mL; in assay [3] it was 3000 ± 790 ng/mL.
